This note sets out measurements from PMC4077696 (PLoS Biology, 2014).

The EC50 is the midpoint of the concentration-response curve.

Where a name gives a salt, the structure may show the parent alone.

Assay [1] concerns P. falciparum 3D7. Briefly: Light microscopy of Giemsa-stained parasites after drug treatment at early rings. In kind it is cell-based, Plasmodium falciparum. As to conditions: for Food vacuole swelling: 916, 024, 025 15 µM, E-64 10 µM. The method, then: As greater than 50% of parasites could not recover from this treatment condition (refer to Figure 4B), the majority of parasites with this appearance were dying or dead. […] (Figure 4D, arrow). […] Collectively, the toxicity profile seen in the above experiments defines the window of parasite death as between 20 and 30 h, consistent with perturbed protein export and erythrocyte remodeling.

Assay [2] has as its system P. falciparum 3D7. Briefly: Parasite growth assay, dose-response, parasitemia at 72 h by flow cytometry. The class given is cell-based, Plasmodium falciparum. Conditions: for EC50: Plasmodium falciparum, 3D7, 72 h, early rings treated 72 h, flow cytometry, read-out: EC50 parasite viability; for Effect on parasite viability, in words: concentrations up to 20 µM, 72 h. The method, then:
Because PEXEL processing in parasites was unaffected by 024 and 025 treatment, even at 50 µM (Figure 3C), we conclude that the analogs impart toxicity at high concentrations independent of PMV.
In the case of dose-response curves, medium was kept for the entire experiment; in the case of curves in Figure 4B,C, medium was replaced with inhibitor-free medium at 48 h postinfection. Parasitaemia was always determined at 72 h by flow cytometry. To knock down PMV, GlcN (Sigma) was added to trophozoites and drug curves initiated by adding compound at subsequent rings (24 h) for 24–72 h.

For the compound `CC(C)C[C@H](NC(=O)[C@H]1O[C@@H]1C(=O)O)C(=O)NCCCCN=C(N)N` [E-64, reference compound], the Food vacuole swelling result in the assay on P. falciparum 3D7 [1] is “swollen food vacuoles”.
For `CC(C)C[C@H](NC(=O)[C@@H](NC(=O)[C@H](CCCNC(=N)N)NS(=O)(=O)Cc1ccccc1)C(C)C)[C@@H](O)CC(=O)NCCc1ccccc1` [compound 916, PhCH2SO2-Arg(NH2)-Val-Sta-NH(CH2)2Ph .TFA], in the assay with P. falciparum 3D7 [2], the EC50 was in the range of 2.5 to 5 µM and the “Effect on parasite viability, in words” value is listed as “completely killed parasites”. In addition, in the assay on P. falciparum 3D7 [1], the Food vacuole swelling result is listed as “did not cause swelling”. In addition, in the assay on P. falciparum 3D7 [1] (early rings, 15 µM), the “Parasite development after 32 h of treatment” value is listed as “blockage in the ring-trophozoite transition” and the “Parasite morphology after 16 h of treatment” value was “normal ring-stage morphology”.
Consider `CC(C)C[C@H](NC(=O)[C@@H](NC(=O)[C@H](CCCCN)NS(=O)(=O)Cc1ccccc1)C(C)C)[C@@H](O)CC(=O)NCCc1ccccc1` [compound 024, PhCH2SO2-Lys(NH2)-Val-Sta-NH(CH2)2Ph .TFA], for which, in the assay with P. falciparum 3D7 [2], the EC50 stood at 66 µM and the “Effect on parasite viability, in words” value was “negligible effect”. The Food vacuole swelling entry in the assay on P. falciparum 3D7 [1] is on record as “did not cause swelling”. Also, the “Parasite development after 32 h of treatment” value in the assay on P. falciparum 3D7 [1] (early rings, 15 µM) is “no effect on development”.
For `CC[C@H](C)[C@H](NC(=O)[C@@H](NC(=O)[C@H](CCCNC(=N)N)NS(=O)(=O)Cc1ccccc1)C(C)C)[C@@H](O)CC(=O)NCCc1ccccc1` [compound 025, PhCH2SO2Arg-Val-AHMHpA-NH(CH2)2Ph . TFA] the same measures were 30 µM, “negligible effect”, “did not cause swelling” and “no effect on development”.
